Results reported in the supplement of paper PMC3334620.
The full ranking holds about 33,000 sequences; the median of “E-score (-0.5 to 0.5)” is about -0.012, and the highest 2% start at about 0.29. The list shows a part of the results.

These sequences were tested against T1, Ybr033w (UniProt P38073) (assay: PBM E-score (8-mer binding enrichment) (E-score (-0.5 to 0.5)); higher = stronger / more preferred TF binding; most listed sequences are background and not binding sites). Settings: protein concentration: 200 nM; construct: GST-full length.
T1 sequence: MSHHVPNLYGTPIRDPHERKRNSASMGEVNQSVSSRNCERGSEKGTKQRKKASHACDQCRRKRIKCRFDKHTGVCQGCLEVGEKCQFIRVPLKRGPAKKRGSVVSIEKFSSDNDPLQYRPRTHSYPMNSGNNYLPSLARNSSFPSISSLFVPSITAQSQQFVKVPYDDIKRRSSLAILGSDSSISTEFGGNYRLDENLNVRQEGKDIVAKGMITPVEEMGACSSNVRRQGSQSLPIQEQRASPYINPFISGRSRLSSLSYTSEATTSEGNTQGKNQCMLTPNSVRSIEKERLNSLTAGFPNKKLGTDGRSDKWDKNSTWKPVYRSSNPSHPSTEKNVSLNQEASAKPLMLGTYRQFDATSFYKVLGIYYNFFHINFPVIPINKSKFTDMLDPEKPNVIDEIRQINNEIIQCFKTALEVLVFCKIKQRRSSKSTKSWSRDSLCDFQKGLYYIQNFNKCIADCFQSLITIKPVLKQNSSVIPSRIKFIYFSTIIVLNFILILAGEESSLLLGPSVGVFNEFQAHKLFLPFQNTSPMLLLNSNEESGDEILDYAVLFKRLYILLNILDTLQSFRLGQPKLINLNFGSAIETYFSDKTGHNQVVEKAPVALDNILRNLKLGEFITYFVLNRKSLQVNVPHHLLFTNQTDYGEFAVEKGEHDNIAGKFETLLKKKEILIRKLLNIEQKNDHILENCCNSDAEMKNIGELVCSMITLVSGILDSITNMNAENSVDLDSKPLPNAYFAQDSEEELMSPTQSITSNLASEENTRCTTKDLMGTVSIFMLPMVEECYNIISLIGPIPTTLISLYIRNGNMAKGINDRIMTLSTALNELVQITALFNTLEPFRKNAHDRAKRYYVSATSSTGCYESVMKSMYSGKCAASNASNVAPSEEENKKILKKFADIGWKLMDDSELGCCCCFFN
Summary of the method: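 Detection of bound protein used fluorescent anti-GST, with scans normalised by masliner. The proteins were GST-tagged yeast transcription factors applied at about 100-200 nM to universal all-10-mer Agilent arrays made double-stranded by primer extension. Each ungapped eight-base word, pooled with its reverse complement, was scored with an E-score from the Universal PBM Analysis Suite.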

| Sequence | PBM E-score |
| --- | --- |
| ATGGTGTC | -0.03 |
| GTTATTGA | 0.0969 |
| ATGGTATC | 0.131 |
| CAATGGGA | -0.041 |
| CCCCTATC | -0.337 |
| AGTCCGTA | -0.251 |
| GAAGAGCC | -0.13 |
| ATATAGTG | 0.181 |
| ACTCGCAC | -0.248 |
| ACCGCACG | -0.169 |
| GTTCACTA | 0.0992 |
| CAATTGCG | -0.0935 |
| CCCGTCGG | -0.196 |
| GCCCCAAC | -0.0113 |
| AGGTCATC | 0.0144 |
| ATCAACTG | 0.141 |
| ACAGCCTA | 0.118 |
| GCCGTTAA | 0.0115 |

| Sequence | PBM E-score |
| --- | --- |
| AAGAGGTC | -0.0651 |
| CTTTGCAC | 0.0862 |
| ACATAGCG | 0.0674 |
| GCATCCTA | 0.0175 |
| CAGGAGAC | -0.0953 |
| ATAAGCCG | -0.0781 |
| GCGTTCAA | 0.117 |
| CTTAAATC | 0.105 |
| TCAAGTAA | 0.199 |
| CTCGTTCA | -0.102 |
| TGGCAAAA | 0.183 |
| CCTAAAAA | 0.196 |
| ATCCCAGG | -0.28 |
| CCAGTTAC | -0.303 |
| ACGAAGTG | -0.00975 |
| ACCAGACT | 0.0132 |
| ACAATTAT | 0.328 |
| ATTTGTGG | 0.0535 |
